Residues, ends and D or L forms follow the SMILES beside them.
Test system: C. albicans
Assay: Peptide or protein/Fluconazole combination MIC and FICI

SMILES: CC[C@H](C)[C@H](NC(=O)[C@H](CCCNC(=N)N)NC(=O)[C@@H](NC(=O)[C@@H](NC(=O)[C@H](Cc1ccccc1)NC(=O)[C@@H](NC(=O)[C@H](CCCNC(=N)N)NC(=O)[C@H](CCCNC(=N)N)NC(=O)[C@H](CCCNC(=N)N)NC(=O)[C@H](Cc1ccccc1)NC(=O)CNC(=O)[C@H](CCCNC(=N)N)NC(=O)[C@H](CS)NC(=O)[C@H](CCCNC(=N)N)NC(=O)CNC(=O)CN)C(C)C)C(C)C)[C@@H](C)O)C(=O)N[C@@H](CS)C(N)=O [GMA4C_V3A] (H-GGRCRGFRRRVFVTRIC-NH2; N-terminus assumed)
- MIC in combination μg/ml: 2.9/8 μg/ml

Reference: patent US20260209297A1, “ANTIMICROBIAL PEPTIDES AND MODIFICATIONS THEREOF” (priority 2022, published 2026)
